Results: PubChem BioAssay AID1347043 (National Center for Advancing Translational Sciences (NCATS), 2019)
Several values for one entry are separate records, joined by “and”; a condition that tells them apart may be missing. Equal values may be shown once. The campaign covered roughly 76,000 compounds. About 1,900 (2.5%) were called active. Inconclusive results, whose numbers are uncertain, are shown with a selection of clear calls. Calls come from the whole dose curve; as a rule, active = well fitted inhibition curve with a large enough effect; inconclusive = small, poorly fitted or top-dose-only effect; inactive = flat fitted curve, though single readings scatter. Potencies beside an inconclusive call are fits to weak or partial responses and may not hold up.
Note: nearly all actives have a fitted effect of over 65% in size.
Potency is the fitted concentration of half-maximal effect; tags give direction and shape of the fitted curve.

These molecules were tested against Luciferin 4-monooxygenase (Photinus pyralis) (UniProt P08659) (assay: Firefly luciferase inhibition profiling of diverse chemical library using quantitative high-throughput screening). Settings: purified P. pyralis luciferase, luminescence, biochemical; series mostly up to 115 µM.
Sequence of UniProt P08659 (P08659 whole entry, looked up): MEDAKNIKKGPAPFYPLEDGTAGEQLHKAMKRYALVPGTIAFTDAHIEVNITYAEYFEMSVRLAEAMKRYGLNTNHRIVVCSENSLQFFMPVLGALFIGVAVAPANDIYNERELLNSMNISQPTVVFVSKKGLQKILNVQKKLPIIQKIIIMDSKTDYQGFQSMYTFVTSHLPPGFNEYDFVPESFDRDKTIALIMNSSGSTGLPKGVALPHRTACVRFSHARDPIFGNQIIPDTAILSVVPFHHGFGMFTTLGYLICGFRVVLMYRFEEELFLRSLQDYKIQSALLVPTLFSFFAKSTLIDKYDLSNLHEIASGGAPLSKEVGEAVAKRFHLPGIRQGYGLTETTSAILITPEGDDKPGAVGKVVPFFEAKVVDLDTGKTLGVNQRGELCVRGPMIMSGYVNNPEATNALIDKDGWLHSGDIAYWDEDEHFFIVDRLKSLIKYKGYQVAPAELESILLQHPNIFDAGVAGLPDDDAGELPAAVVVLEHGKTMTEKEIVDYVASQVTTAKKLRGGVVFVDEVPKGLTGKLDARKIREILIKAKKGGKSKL
In short: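 FLuc 10nM, D-luciferin 10uM, ATP 10uM, Mg acetate 10mM, Tris acetate pH 7.5, Tween/BSA; cpd qHTS; enzyme added last; CCD luminescence.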
`COc1ccc(-n2nc(C)c([C@@H]3C=C[C@@H](NC(=O)NCc4ccccc4)C3)c2C)cc1` was tested, and the Potency was active: 1.12 µM. With `c1ccc(-c2ccnc3nc(-c4cccs4)nn23)cc1` the Potency was inconclusive: 39.8 µM [inhibitor, partial curve]. In the case of `O=C1CN(C(=O)CCC(=O)N2CCc3c(nc4cc(-c5ccccc5)[nH]n4c3=O)C2)c2ccccc2N1`, the Potency is reported as inconclusive: 44.7 µM [inhibitor, partial curve]. `O=C(Nc1cccc(-c2ccc(N3CCOCC3)nn2)c1)Nc1ccccc1F` was tested, and the Potency was active: 1.58 µM. For `Cc1noc(-c2ccc(OC(F)(F)F)cc2)c1C(=O)NCCc1ccc(F)cc1`, the Potency was “inactive”. With `Cc1cc(CN(C)C(=O)c2csc3nc(-c4cccc(C(F)(F)F)c4)cn23)on1` the Potency was inconclusive: 50.1 µM [inhibitor, partial curve]. In the case of `COc1cc(F)ccc1-c1ccc(COc2ccc3c(cnn3CCC(=O)O)c2)cc1`, the Potency is reported as active: 44.7 µM. `COc1ccc(C(=O)N2CC(Oc3ccc(F)cc3C)C2)cc1` was tested, and the Potency was “inactive”. In the case of `CC(C)c1cc(C(=O)NCc2cccnc2Oc2cccc(C(F)(F)F)c2)n[nH]1`, the Potency is reported as inconclusive: 50.1 µM [inhibitor, partial curve, poor fit]. With `O=C(N[C@@H]1COCC[C@H]1OCc1ccccn1)c1cnc(C2CC2)nc1` the Potency was “inactive”. With `COc1ccc(C(=O)N2CCC(c3n[nH]c(=O)n3-c3ccc(C)cc3)CC2)c(OC)n1` the Potency was inconclusive: 39.8 µM [inhibitor, partial curve]. `Cc1cn2nc(C(=O)NCc3cccc(Cl)c3)cc2c(=O)[nH]1` was tested, and the Potency was inconclusive: 50.1 µM [inhibitor, partial curve, poor fit]. With `N#Cc1cccc(CN[C@H]2CO[C@H]3[C@@H]2OC[C@@H]3n2cc(-c3ccccn3)nn2)c1` the Potency was inconclusive: 79.4 µM [inhibitor, partial curve]. With `CSc1ccc(NC(=O)c2ccc3c(c2)N(C)C2CCCCN2C3=O)cc1` (configuration not stated) the Potency was active: 44.7 µM. With `CSc1ccc(NC(=O)N2CCC(N(CCC(C)C)C3CCOCC3)CC2)cc1` the Potency was inconclusive: 25.1 µM [inhibitor, partial curve]. In the case of `Cc1ccc(CN2CCc3nc(C(=O)Nc4ccccc4)oc3CC2)cc1`, the Potency is reported as active: 5.01 µM. For `CC(C)C(=O)N1CCC2(CC1)NCCc1c2[nH]c2ccccc12`, the Potency was “inactive”. In the case of `N#Cc1ccc(C(=O)Nc2ccc3n(c2=O)C[C@H]2C[C@@H]3CN(C(=O)c3ccccn3)C2)cc1`, the Potency is reported as inconclusive: 50.1 µM [inhibitor, partial curve]. `Cc1cccc(NC(=O)CN2C(=O)NC(c3ccccc3Cl)C3=C2COC3=O)c1` (configuration not stated) was tested, and the Potency was inconclusive: 25.1 µM [inhibitor, full curve]. In the case of `Cc1ccc(NC(=O)N[C@H]2C[C@@H](c3nc(-c4ccc(F)cc4)no3)N(C)C2)cc1`, the Potency is reported as inconclusive: 112 µM [inhibitor, single point]. With `CN1[C@@H](CCC(=O)N2CCOCC2)CNC(=O)[C@@H]2[C@H]1CCN2Cc1ncc[nH]1` the Potency was “inactive”. With `COc1cccc(CCC(=O)Nc2ccc3ncnc(N4CCCC4)c3c2)c1` the Potency was “inactive”. In the case of `O=C(c1cccc(OC2CN(CC3CC=CCC3)C2)c1)N1CCOCC1` (configuration not stated), the Potency is reported as “inactive”. For `Cc1ccc(-c2nn(-c3cccc(F)c3)cc2CN(C)CCO)o1`, the Potency was inconclusive: 39.8 µM [inhibitor, partial curve]. With `OCc1cccc(-c2ccc3ncc(Nc4ccnc(N5CCOCC5)c4)n3n2)c1` the Potency was inconclusive: 63.1 µM [inhibitor, full curve]. `CC(C)(C)c1ccc(-n2ncc3c2CCCC3NC(=O)c2c[nH]c(=O)[nH]c2=O)cc1` (configuration not stated) was tested, and the Potency was inconclusive: 44.7 µM [inhibitor, partial curve]. `O=C(NCC(F)(F)F)C1CN(c2ccc(F)cc2)C(=O)N1` (configuration not stated) was tested, and the Potency was inconclusive: 100 µM [inhibitor, partial curve, poor fit]. In the case of `COCCn1c(=O)c2c(n1Cc1ccccc1)CN(Cc1cncc(OC)c1)CC2`, the Potency is reported as “inactive”. With `CC(C)c1ccc(CNC(=O)c2noc(-c3ccc4c(c3)OCO4)n2)cc1` the Potency was inconclusive: 17.8 µM [inhibitor, full curve]. In the case of `Cc1nnc(-c2cc(-c3cccc(N(C)C)c3)ccn2)n1Cc1ccccc1`, the Potency is reported as inconclusive: 56.2 µM [inhibitor, partial curve]. In the case of `CSCCNC(=O)c1cc(Br)cn2ccnc12`, the Potency is reported as active: 44.7 µM and inconclusive: 44.7 µM [inhibitor, partial curve]. With `O=C(CN1Cc2nc(-c3cc4ccccc4o3)ccc2OCC1=O)N1CCCC1` the Potency was inconclusive: 70.8 µM [inhibitor, partial curve]. `Cc1cnc(CCNC(=O)Nc2ccccc2F)n1C1CCC1` was tested, and the Potency was inconclusive: 56.2 µM [inhibitor, partial curve]. In the case of `COCCn1cnc2ccc(-c3ccccc3)nc2c1=O`, the Potency is reported as inconclusive: 100 µM [inhibitor, partial curve]. With `CN1c2cc(C(=O)NC3CCCCCCC3)ccc2C(=O)N2CCCC21` (configuration not stated) the Potency was inconclusive: 44.7 µM [inhibitor, partial curve]. For `COc1ccc(Nc2cnc3ccc(-c4ccccc4)nn23)cn1`, the Potency was inconclusive: 44.7 µM [inhibitor, partial curve, poor fit]. For `O=C(NC[C@H]1Cn2cc(-c3ccccc3)nc2CO1)c1ccc2c(c1)OCO2`, the Potency was inconclusive: 70.8 µM [inhibitor, partial curve]. `CCOc1ccc(NC(=O)C2CCN(C(=O)c3nnn4c3COC(c3ccc(C)cc3)C4)CC2)cc1` (configuration not stated) was tested, and the Potency was inconclusive: 50.1 µM [inhibitor, partial curve]. In the case of `CCOCC(=O)N1CCC(Oc2nccnc2N(C)C)C1` (configuration not stated), the Potency is reported as inconclusive: 44.7 µM [inhibitor, partial curve]. With `Cc1ccccc1S(=O)(=O)N1CCN(C2CCN(Cc3ccccn3)C2=O)CC1` (configuration not stated) the Potency was “inactive”. With `COc1ccc(CCNC(=O)c2c(C)noc2-c2cccs2)cc1OC` the Potency was “inactive”. In the case of `COc1ccc(-c2ccc3ncc(Nc4ccnc(N5CCOCC5)c4)n3n2)cc1OC`, the Potency is reported as inconclusive: 70.8 µM [inhibitor, partial curve].
